According to the BET-seq Pho4 binding data (Le et al. 2018):
This is one part of the list. These are noisy estimates, calculated here from bound and input reads.

Molecular target: T1, Pho4 (S. cerevisiae) (UniProt P07270)
T1 sequence: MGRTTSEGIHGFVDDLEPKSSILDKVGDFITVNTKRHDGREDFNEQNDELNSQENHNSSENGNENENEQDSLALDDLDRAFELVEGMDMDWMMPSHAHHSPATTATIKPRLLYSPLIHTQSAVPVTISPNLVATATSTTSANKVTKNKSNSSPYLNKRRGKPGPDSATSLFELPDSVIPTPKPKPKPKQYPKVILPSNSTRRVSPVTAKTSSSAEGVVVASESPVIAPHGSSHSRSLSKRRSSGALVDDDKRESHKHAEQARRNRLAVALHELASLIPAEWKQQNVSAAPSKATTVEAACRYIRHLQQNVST
Assay: relative binding free energy (BET-seq); higher = weaker binding
Conditions: reference: library average

Row | Sequence | relative binding free energy [kcal/mol]
1 | GGTCGCACGTGCAGGT | -0.1
2 | GAGTACACGTGGTCGG | -0.11
3 | TTGGTCACGTGTCGTT | 0.27
4 | AGTAACACGTGTCAGG | 0.02
5 | TTAAGCACGTGTGTAT | -0.1
6 | AGGTGCACGTGGTATG | -0.11
7 | TAGTTCACGTGGATTG | 0.27
8 | TTGTTCACGTGGGGAA | 0.16
9 | TAATTCACGTGGTAAT | 0.07
10 | CATGTCACGTGGCGGT | 0.04
11 | AAATTCACGTGTGTAG | 0.04
12 | CTGTGCACGTGGTCTT | -0.04
13 | GTTGGCACGTGTGTGA | 0.07
14 | TTCAACACGTGGTTTG | -0.05
15 | TCGGACACGTGTGTGT | -0.03
16 | TGGGGCACGTGACCGG | -0.14
17 | CGCGGCACGTGACGGG | 0.11
18 | TCTGGCACGTGATATT | 0.06
19 | AGGAGCACGTGGAATA | 0.06
20 | AATGTCACGTGTGCGC | 0.12
21 | TTTATCACGTGGTTAA | 0.02
22 | GATTTCACGTGAGCAT | 0.5
23 | ATCTTCACGTGCTGTG | 0.2

Row | Sequence | relative binding free energy [kcal/mol]
24 | GTTTGCACGTGCGGTA | 0.06
25 | GATGGCACGTGCCGTG | 0.04
26 | GTAGACACGTGGTATT | -0.04
27 | ACGGTCACGTGTAGTT | 0.19
28 | TGCGTCACGTGGTGTA | -0.05
29 | TGTTACACGTGAAAGT | 0.27
30 | AAGGGCACGTGAGGCG | -0.01
31 | CAATGCACGTGGCGGG | -0.09
32 | ATGCTCACGTGGTTAT | 0.15
33 | GGTTTCACGTGTGGCG | 0.31
34 | TGATTCACGTGGTTTT | 0.24
35 | TGTATCACGTGAATAG | 0.27
36 | ATGTTCACGTGCGATG | 0.25
37 | TGGAGCACGTGGAATT | 0.02
38 | AGACTCACGTGGGGCG | 0.17
39 | GATGACACGTGGCGGT | 0.1
40 | TTGTACACGTGAGAGC | 0.18
41 | TTGTGCACGTGGGGAT | -0.06
42 | AAGTGCACGTGTCTGG | 0.04
43 | CTTGTCACGTGTTCTG | -0.02
44 | CTGTTCACGTGAAATG | 0.32
45 | ATGAGCACGTGGTTTT | -0.2
46 | TATAACACGTGGTGTT | -0.15

Row | Sequence | relative binding free energy [kcal/mol]
47 | CGGGGCACGTGGGATG | -0.18
48 | TGTAACACGTGCCGTT | 0.08
49 | GGGTCCACGTGTTTAA | 0.13
50 | ATTTTCACGTGTAATC | 0.39
51 | AGTATCACGTGCTGGC | 0.14
52 | CTGTTCACGTGGTAAT | 0.27
53 | TGTAACACGTGTATGA | -0.03
54 | AGTAACACGTGGGTCG | -0.12
55 | ATTTTCACGTGTCGGA | 0.32
56 | ATCGGCACGTGAGGTT | 0.13
57 | TATAGCACGTGATGAT | 0.06
58 | CGTATCACGTGAGGTA | 0.25
59 | AGCGACACGTGGGTTT | -0.1
60 | ATGTGCACGTGCTTTT | -0.14
61 | GCGTACACGTGGGTTT | 0.11
62 | TTTAACACGTGGCGTA | -0.07
63 | TTAGACACGTGAGTTT | 0.3
64 | TTGTGCACGTGCACGT | -0.16
65 | GTGTTCACGTGAGATG | 0.34
66 | TGCGACACGTGGGGTT | -0.04
67 | GGGCGCACGTGCGTTT | -0.09
68 | GGGGGCACGTGACTAG | 0.19
69 | GTATGCACGTGATGTG | 0.03

Row | Sequence | relative binding free energy [kcal/mol]
70 | TTTTACACGTGGCGTC | 0.24
71 | CTTGCCACGTGTTGGT | -0.12
72 | TATTTCACGTGCGTTT | 0.36
73 | AGTATCACGTGACGTG | 0.22
74 | GGTCGCACGTGTGTCA | -0.06
75 | TAATGCACGTGGTAAA | -0.01
76 | GTCTTCACGTGCATTG | 0.27
77 | ACAGACACGTGGAGGG | 0.04
78 | TGGGACACGTGTTGTA | 0.08
79 | ATGTTCACGTGGGAGA | -0.01
80 | TAGTTCACGTGAAATG | 0.38
81 | GTTAACACGTGGTGTA | 0.02
82 | GAATACACGTGGTGGT | 0.12
83 | TAAAGCACGTGAGGGG | 0.13
84 | GGGATCACGTGGGTTA | 0.03
85 | GGGGACACGTGCTGTT | 0.01
86 | TATGTCACGTGTTAAC | 0.18
87 | GGGAGCACGTGTTTGT | -0.05
88 | GGTAGCACGTGACGTG | 0.13
89 | ATTTACACGTGTGGCT | 0.17
90 | GCGAGCACGTGGCGGT | -0.06
91 | GGTGGCACGTGGTTCT | -0.04
92 | TGGTTCACGTGACAGG | 0.34

Row | Sequence | relative binding free energy [kcal/mol]
93 | TGAGGCACGTGTAAGC | 0.11
94 | TAAGTCACGTGTCGGG | 0.1
95 | GTGTTCACGTGAAAGA | 0.38
96 | AGAGGCACGTGATAGA | 0.01
97 | TGGTGCACGTGTACGG | -0.02
98 | GGTTTCACGTGTCAAA | 0.39
99 | TGGTCCACGTGGTGAG | -0.11
100 | TATTGCACGTGTCGGG | 0.04
101 | TAGGCCACGTGTTTAT | -0.04
102 | ATTGACACGTGTGCGT | -0.12
103 | TGTAGCACGTGACTTA | -0.01
104 | GTTGTCACGTGCGGTA | 0.27
105 | TGTAGCACGTGCAGTG | -0.01
106 | GTGGACACGTGTCAGT | 0.01
107 | GTTCGCACGTGTGGGG | 0.15
108 | TGTCTCACGTGTGAGG | 0.27
109 | TATTTCACGTGGAGTG | 0.17
110 | TAGGTCACGTGTACGA | 0.05
111 | GTGGTCACGTGATGGA | 0.33
112 | AGTGGCACGTGGTATG | -0.25
113 | TGTTTCACGTGTAATT | 0.37
114 | GTGTTCACGTGGGGTG | 0.18
115 | GAGATCACGTGTGGTG | 0.22
